# In patent US20220033450A1, “VIRALLY EXPRESSED INHIBITORS OF PDZ DOMAINS, SUCH AS PICK1 AND USES THEREOF” (University of Copenhagen, priority 2018, published 2022):
# “Also recorded” adds a separate entry of the source.
# Assays:
# PICK1 [1] = target: T1, PICK1 (Rattus norvegicus, UniProt Q9EP80); test: Size exclusion chromatography of PICK1 incubated with peptide (induction of tetrameric/higher oligomers of PICK1); type: biochemical; conditions: PICK1 40 μM; for induction of tetrameric configuration of PICK1 (SEC): peptide 10 μM (4:1); for oligomerization of PICK1 (SEC): Example 9
# T1 construct: GST (inferred from the pGEX4T2 vector and glutathione-Sepharose capture) (N, cleaved yes); made in house; host or cells: E. coli BL21-DE3-pLysS
# T1 sequence (Q9EP80 whole entry): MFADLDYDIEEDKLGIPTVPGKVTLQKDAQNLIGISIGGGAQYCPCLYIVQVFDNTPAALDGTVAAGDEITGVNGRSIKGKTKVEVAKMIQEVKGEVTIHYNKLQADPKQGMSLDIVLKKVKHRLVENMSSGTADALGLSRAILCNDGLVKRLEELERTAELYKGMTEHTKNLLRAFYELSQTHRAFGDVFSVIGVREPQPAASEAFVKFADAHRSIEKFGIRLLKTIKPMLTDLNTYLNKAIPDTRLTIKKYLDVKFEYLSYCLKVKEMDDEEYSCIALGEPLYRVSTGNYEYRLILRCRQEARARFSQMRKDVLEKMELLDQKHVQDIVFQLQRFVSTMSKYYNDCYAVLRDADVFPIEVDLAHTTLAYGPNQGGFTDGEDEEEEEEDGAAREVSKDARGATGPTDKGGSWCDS
# Procedure: Protein expression was induced with 10 mM Isopropyl β-D-1-thiogalactopyranoside (IPTG) and grown overnight at 20° C. […] 1 L culture. Resuspended pellet was frozen at −80° C. to induce cell lysis. The bacterial suspension was thawed and cleared by centrifugation.
# PICK1 [2] = target: T1, PICK1; test: Fluorescence polarization competition binding to PICK1, 5FAM DAT C5 tracer
# Procedure: Fluorescence polarization was carried out in saturation mode and competition mode.
# [3] = Size exclusion chromatography of synthetic peptides alone (oligomeric assembly); type: physicochemical; conditions: N-terminal Biotin and Ahx linker, Superdex200 Increase 10/300
# Circular dichroism = type: physicochemical; conditions: 8 μM peptide, 50 mM NaPi pH 8, 25° C.
# [4] = peptide 20 μM or 400 μM (2:1 and 1:10 PICK1:peptide)
Substance,induction of tetrameric configuration of PICK1 (SEC) (PICK1 [1]),oligomerization of PICK1 (SEC) (PICK1 [1]; [4]),oligomerization of PICK1 (SEC) (PICK1 [1]; peptide 400 μM),binding to PICK1 (PICK1 [2]),oligomeric assembly of the peptide (SEC elution) [3],secondary structure by circular dichroism (Circular dichroism)
RMKQLEDKVEELLSKNYHLENEVARLKKLV-GGGGS-HWLKD (RMKQLEDKVEELLSKNYHLENEVARLKKLVGGGGSHWLKD; GCN4-GS4-V-to-D),eluted exclusively in the dimeric peak of PICK1; also recorded: did not cause the shift in PICK1 elution,did not cause PICK1 to oligomerize even at higher concentration,did not cause PICK1 to oligomerize,did not show any binding up to 100 μM; also recorded: no binding to PICK1,eluted as a homodimer; also recorded: intact dimer formation,
"RMKQLEPKVEELLPKNYHLENEVARLKKLV-GGGGS-HWLKV (RMKQLEPKVEELLPKNYHLENEVARLKKLVGGGGSHWLKV; N-terminal biotin and Ahx linker; GCN4p1(7P14P)-GS4-DATC5) [GCN4-GS4-7P14P, variant with Proline in position 7 and 14; tested with N-terminal Biotin and Ahx linker]",eluted in the dimeric peak of PICK1; also recorded: not capable of inducing tetramer formation of PICK1,did not cause PICK1 to oligomerize even at higher concentration,also eluted at 11.7 ml,,partly shifted to elution at 19.7 ml corresponding to a monomer; also recorded: mixture of dimers and monomers,random coil
